Data from paper PMC4336329 (PLoS ONE, 2015).
Screen size: about 310,000 compounds; about 14,000 (4.5%) showed an effect of 50% or more. Effects have a minus sign here. The list shows a part of the results.

target: human ether-à-go-go-related gene (hERG) potassium channel (human, UniProt Q12809); assay: primary screen, population patch clamp on CHO cells stably expressing hERG
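Also: peak tail current of the secondary pulse compared with the same well before compound.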

Sequence of human ether-à-go-go-related gene (hERG) potassium channel (Q12809 whole entry, looked up): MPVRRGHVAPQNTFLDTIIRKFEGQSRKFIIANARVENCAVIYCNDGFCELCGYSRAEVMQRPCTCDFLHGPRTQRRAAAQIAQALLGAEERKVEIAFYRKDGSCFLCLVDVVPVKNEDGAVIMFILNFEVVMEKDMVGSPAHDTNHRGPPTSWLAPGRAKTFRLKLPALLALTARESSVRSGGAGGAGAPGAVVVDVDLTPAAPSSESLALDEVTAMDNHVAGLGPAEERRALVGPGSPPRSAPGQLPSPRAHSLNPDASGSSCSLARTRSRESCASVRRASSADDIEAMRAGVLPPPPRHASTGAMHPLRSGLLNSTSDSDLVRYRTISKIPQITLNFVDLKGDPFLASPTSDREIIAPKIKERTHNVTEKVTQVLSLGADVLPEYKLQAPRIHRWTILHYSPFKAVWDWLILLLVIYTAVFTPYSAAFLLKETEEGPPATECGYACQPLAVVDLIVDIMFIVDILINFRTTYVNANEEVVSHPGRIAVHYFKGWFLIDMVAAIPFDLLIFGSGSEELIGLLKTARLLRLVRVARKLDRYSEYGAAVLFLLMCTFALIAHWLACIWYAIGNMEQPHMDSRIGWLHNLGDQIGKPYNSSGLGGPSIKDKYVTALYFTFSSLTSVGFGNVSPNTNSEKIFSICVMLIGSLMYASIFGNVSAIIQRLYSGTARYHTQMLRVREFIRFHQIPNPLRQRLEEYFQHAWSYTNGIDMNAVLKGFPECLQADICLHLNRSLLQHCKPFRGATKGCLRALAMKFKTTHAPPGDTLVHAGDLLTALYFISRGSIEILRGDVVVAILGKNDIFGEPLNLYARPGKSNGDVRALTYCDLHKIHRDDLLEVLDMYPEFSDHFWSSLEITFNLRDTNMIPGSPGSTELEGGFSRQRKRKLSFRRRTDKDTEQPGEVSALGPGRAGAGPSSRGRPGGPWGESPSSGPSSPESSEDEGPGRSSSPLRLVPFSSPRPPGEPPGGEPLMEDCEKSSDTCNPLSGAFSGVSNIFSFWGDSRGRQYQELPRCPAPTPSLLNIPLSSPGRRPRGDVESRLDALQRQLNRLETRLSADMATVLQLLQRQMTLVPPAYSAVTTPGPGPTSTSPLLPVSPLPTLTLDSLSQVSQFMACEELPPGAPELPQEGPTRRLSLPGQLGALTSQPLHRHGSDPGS

Structure (SMILES) | hERG current change (%, negative = inhibition) at 10uM
COCOc1ccc(-c2oc3c(C/C=C(\C)CCC=C(C)C)ccc(O)c3c(=O)c2OCOC)c(OCOC)c1 | -9.2%
O=C1S/C(=C\c2ccccc2)C(=O)N1CC(O)Cn1c2ccccc2c2ccccc21 (centres unmarked) | 10.2%
CCC(C)Sc1ccc([C@H]2N[C@@](Cc3ccccc3)(C(=O)OC)[C@H]3C(=O)N(C)C(=O)[C@@H]23)cc1.O=C(O)C(F)(F)F (some centres unmarked) | -19.1%
Cc1ccsc1C(=O)c1sccc1C | -3.08%
Cc1noc(C)c1COC(=O)COc1ccc(-c2ccccc2)cc1 | 6.28%
CC(=O)Oc1ccc(N2C(=O)CCC2=O)cc1 | 16%
COc1cccc2c(=O)n(CC(=O)N3CCCCCC3)ccc12 | 4.85%
COc1ccc(S(=O)(=O)CC2(O)CCN(C(=O)CC(C)C)CC2)cc1 | 1.79%
O=C(/C(C=Nc1ccc(F)cc1)=C(/O)c1ccco1)C(F)(F)F | -26.7%
CC1(C)CC(CCC(=O)Nc2ccc(S(N)(=O)=O)cc2)C(=O)O1 (centres unmarked) | 26.2%
CCn1c(SCC(=O)N2CCCCCC2)nc2c([nH]c3ccccc32)c1=O | -18.6%
CC(=O)c1ccc(NC(=S)NCCCN2CCOCC2)cc1 | 14.9%
COc1cc2ncnc(NCc3ccccc3)c2cc1OC | -11.2%
Cl.O=C(CN1CCCC1)NC12CC3CC(CC(C3)C1)C2 | -2.98%
Cc1cccn2c(=O)c3cc(C(=O)NCc4ccco4)c(=N)n(C4CCCC4)c3nc12 | -78.8%
CN1C(=O)N(C)C(=O)C(CCc2ccncc2)(CCc2ccncc2)C1=O | -51.2%
COc1ccccc1NCCC(=O)OCC(=O)Nc1cccc(S(=O)(=O)N(C)C)c1 | 1.54%
COCn1c(C(O)c2ccccc2)cc2ccccc21 (centres unmarked) | 6.02%
N#Cc1nc(N)nc(N(c2ccccc2)c2ccccc2)n1 | -3.89%
COC(=O)c1cn(C(=O)c2cc(Cl)ccc2Cl)c2ccccc12 | 18.1%
COC(=O)Nc1nc(Sc2ncc(C(F)(F)F)cc2Cl)n[nH]1 | 18.6%
Cc1ccc([C@@H]2CC=C(C(=O)O)CN2S(=O)(=O)c2ccc(C)cc2)cc1 | 22.3%

Structure (SMILES) | hERG current change (%, negative = inhibition) at 10uM
Cc1ccnc(NC(=O)CCC(=O)N(CC(=O)NCC2CCCO2)Cc2ccc(F)cc2)c1 (centres unmarked) | 0.34%
CCOc1ccc(CC(=O)N/N=C/c2sccc2C)cc1 | 14.5%
CC1CC(C)CN(S(=O)(=O)c2ccc3c(c2)n(C)c(=O)c(=O)n3C)C1 (centres unmarked) | -2.6%
CCOC(=O)c1sc2nc(SC)nc(-c3ccccc3)c2c1N | 16.3%
CN(C)[C@@H](CO)c1nnc([C@H](CC(=O)O)NC(=O)C2CCNCC2)o1.Cl | 10%
CCCCN(C)C(=O)C1CCC(=O)N(c2cc(OC)c(OC)c(OC)c2)C1c1ccc(OC)cc1 (centres unmarked) | 8.39%
COc1ccccc1NC(=O)NCc1nc(-c2ccc(C(F)(F)F)cc2)no1 | 12.7%
Cc1cccnc1NC(=S)NC(=O)c1cccs1 | 5.86%
CC(C)CC(C(=O)O)N1C(=O)C2C3CC(C2C1=O)C1C(c2ccccc2)c2sc(=O)[nH]c2SC31 (centres unmarked) | -1.65%
COC(=O)c1cc(Br)ccc1OC(=O)c1cccnc1 | 7.06%
COc1ccc2nc(NCCCO)[nH]c2c1 | -0.951%
Cc1cccc2cc3c(nc12)SC(=NCC1CCCO1)N(Cc1ccco1)C3 (centres unmarked) | 5.01%
COc1cc(/C=N/NC(=O)c2cccc([N+](=O)[O-])c2)cc(OC)c1O | -10.8%
O=C1C(SCCO)=C(SCCO)C(=O)c2ccccc21 | -11%
O=C(c1ccccc1)c1ccc(-n2cnnc2)c([N+](=O)[O-])c1 | -10.7%
CC(C)N1CCc2c(sc(NC(=O)c3cc(-c4cccs4)nc4ccccc34)c2C(N)=O)C1.Cl | 1.83%
CCn1c(SCC(=O)N/N=C/c2ccccc2OCC(=O)O)nnc1-c1ccc(C)cc1 | 3.57%
CCOc1cc(C2C3=C(CCCC3=O)N(CCC(=O)O)C3=C2C(=O)CCC3)ccc1OS(=O)(=O)c1ccc(C)cc1 | 0.528%
COC(=O)COc1ccc(S(=O)(=O)NCc2ccccn2)cc1 | 13.3%
CCC(C)Nc1nc2c(C)cccn2c(=O)c1C=Nc1ccc(OC)cc1 (centres unmarked) | 10.1%
O=C(O)c1cc(S(=O)(=O)NCCN2CCNC2=O)ccc1O | 14.1%
CN(Cc1ccccc1)CC(O)COc1ccc(CNCc2ccc(Cl)s2)cc1 (centres unmarked) | -12.3%
